From patent publication US8044100B2, “Methods and compositions for treating amyloid-related diseases” (Bellus Health Inc., priority 2004, dated 2011)
Some of these results come from one statement about several compounds together.

How the values were obtained:
SH-SY5Y cells = assay: Neuroprotection: Aβ42-induced cell death in SH-SY5Y cells, Hoechst staining; format: cell-based, human; conditions: 12 μM Aβ1-42, 240 μM compound (1:20 Aβ:drug ratio), 24 hours
Aβ40 = Aβ40 (Homo sapiens, UniProt P05067); assay: Mass spectrometry (MS) assay for binding to soluble Aβ40; conditions: 150 μM test compound and 30 μM solubilized Aβ40, pH 7.4
Sequence of Aβ40 (P05067 672-711 limits assumed): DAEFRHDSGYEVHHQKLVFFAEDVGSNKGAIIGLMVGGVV

Row | SMILES | Inhibition of Aβ-induced toxicity (%) (SH-SY5Y cells) | Aβ binding (%) (Aβ40)
1 | CC(C)(NCCCS(=O)(=O)O)c1cccs1 [QJ, 3-[(1-methyl-1-thien-2-ylethyl)amino]-1-propanesulfonic acid] | <20 | 40-69%
2 | NCCC(Cc1ccccc1)S(=O)(=O)O (stereo not shown) [QQ, 4-amino-1-phenyl-2-butanesulfonic acid] | <20 | 40-69%
